Laboratory results reported in the supplement of paper PMC10126150.
Sequences with one replicate were seen in a single cluster, so their values are uncertain.

Tested on: ATP
Assay: switch fluorescence ratio, 500 uM ATP over buffer (Cy3 cluster intensity, sum of 5 cycles each) (fold (ratio)); higher = stronger signal-on switching upon ATP binding; sequences stand for … in TCGTCGGCAGCGTCAGATGTGTATAAGAGACAGTTTTTTTTTTTTTTTTTTTTTTTTT…TC
Settings: aptamer strand: ATP DNA aptamer (quencher-CACCTGGGGGAGTATTGCGGAGGAAGG + anchor), 100 nM annealed; ATP concentration: 500 uM; one replicate
Method in brief: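 Imaging in selection buffer was followed by imaging after 15 min with 500 uM ATP at 22 °C, for Cy3-labelled switching-strand clusters annealed to 100 nM quencher-labelled ATP aptamer on a modified Illumina MiSeq flow-cell. Five of these buffer/ATP cycles ran, separated by NaOH stripping and re-annealing. The fluorescence ratio per cluster is summed target-cycle over summed buffer-cycle Cy3 intensity, averaged per switch-domain sequence; clusters outside 100-1000 RFU were removed.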
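Note: ATP exposure 15 min at 22 °C before imaging.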

| Sequence | switch fluorescence ratio |
| --- | --- |
| CTTAAGTATG | 1.04 |
| GAAATTGGGC | 0.94 |
| GTTAATTCGC | 1.03 |
| GGGTCCTATG | 0.956 |
| TTTAACCTAA | 0.985 |
| TAAGGTCTAT | 0.997 |
| TCATGTCTTT | 1.01 |
| CATTTCTCCG | 3.26 |
| GCGTAACTAA | 0.987 |
| AAAACGGAGG | 0.99 |
| CGCCTAGTAA | 1.08 |
| TATAGGCCA | 1.01 |
| CCAAGTCCAA | 1.13 |
| TACCCCCGA | 1.85 |
| GGTTTACTAG | 1.02 |
| CCTCACGCCT | 3.53 |
| AAGCAGGACC | 1.12 |
| AACGCCCCCG | 1.12 |
| CAGGGGCGA | 1.72 |
| GCTGAGCATT | 1.02 |
| CAGTAGCTTC | 2.15 |
| TTCAATTTGT | 1 |
| CCGCTGCCGA | 1.7 |
| AATCGTCCAA | 1.05 |
| TACCCGTAGA | 1.06 |
| TCATGTAGGC | 1.06 |

| Sequence | switch fluorescence ratio |
| --- | --- |
| ACAGTGTTTG | 0.966 |
| GAAGGACTAG | 0.961 |
| CCCCAATTCA | 1.09 |
| GGAATGACAG | 1.01 |
| AAACCCGCCG | 0.982 |
| TGAGTCACGA | 1 |
| CGCCTGATTT | 1 |
| TCCTAGCGGC | 1.22 |
| TAGATCCGGC | 0.961 |
| AACGTCGGAG | 1.01 |
| ATTCGAGGGT | 0.936 |
| TTTCCTTATC | 1.67 |
| ATCAGAAACG | 0.934 |
| CATTGTGGCC | 1.06 |
| ACTTAGTCTG | 1.1 |
| GAACGCGCTA | 1.23 |
| ACGCCCAATC | 4.47 |
| CGGGCCTCGC | 1.01 |
| ACTGTAGGAG | 1.12 |
| GATTCAGTT | 1.03 |
| GCCCATAAGG | 0.987 |
| ATATATTCTG | 1.01 |
| AATCAAAACC | 1.02 |
| GTCAGGATTA | 1.02 |
| ATTCCTTAAG | 1.01 |
| GTTAATCGGG | 1.01 |

| Sequence | switch fluorescence ratio |
| --- | --- |
| TTCGACCAT | 1.02 |
| AATGCGAGTG | 0.976 |
| AATTACGCCA | 1.25 |
| TTAGGAACA | 1.03 |
| ATGAACGAGT | 1.01 |
| AATTGTATTC | 1.07 |
| TGGACTAGCG | 0.991 |
| GTGTACGTGC | 1.04 |
| CCTCCAGGTA | 4.03 |
| AAGGTCGTAC | 0.982 |
| TACCGAGGGG | 1.05 |
| ACATTTGTTG | 0.985 |
| CCCATTGGAC | 1.02 |
| GAAGAAGTGA | 0.986 |
| CGACCTGCCG | 1.06 |
| CACATTTACA | 1.1 |
| GTGGCGAAG | 1 |
| TAAGGCATCC | 1.09 |
| AGGTGTTTTC | 1 |
| GCTAAAATCG | 0.972 |
| CCATAATTTT | 1.02 |
| GAGTGCGTG | 0.966 |
| CTACGTAGGG | 1.04 |
| AATTTTCATG | 1 |
| CAGTGCGATG | 0.964 |
| CTCATCAATG | 1.02 |

| Sequence | switch fluorescence ratio |
| --- | --- |
| TCCCATAAGA | 1.04 |
| ATTGCGATTG | 1.03 |
| AATAGGCTAT | 1 |
| TATGTCATCA | 0.968 |
| CGGAGTTGTA | 0.973 |
| TTAATTGACT | 1.05 |
| ATGGAGGAG | 0.999 |
| GCACGCCTCG | 1.04 |
| ATCCTTCGG | 1.03 |
| AGGCGATTGC | 1 |
| CTATCCGTCG | 1.09 |
| CGCACCCCAT | 1.78 |
| ATATTACATT | 1.06 |
| CTCTTTGCGG | 0.997 |
| TTGAAGCTCC | 3.89 |
| GGCAGCTAGG | 1.02 |
| AGATAGACGG | 1.02 |
| CAGGATTATA | 1 |
| GCAATGTTGC | 1 |
| CAACTAGTGA | 1.02 |
| TAGTCCGT | 1.02 |
| CGGCGCCAGA | 0.976 |
| GTTTGGCGAG | 0.992 |
| ACGGATGTAA | 0.98 |
| AATCGGCCCG | 0.948 |
| GAATCTATAT | 0.98 |

| Sequence | switch fluorescence ratio |
| --- | --- |
| CCGTACCTCT | 1.09 |
| TCCCGGCTGA | 1.08 |
| TCCGCACGGT | 1.56 |
| TGCGGAGGAG | 0.994 |
| CAGTTGCACC | 1.06 |
| CGTGTTTGT | 0.971 |
| CCTAAAGTCA | 1 |
| GGGAAGAAAC | 0.999 |
| TTCTTGAGTT | 0.996 |
| TAAAATGATG | 1.02 |
| AGTTCCAGAT | 1.03 |
| TTATGGCGGA | 1 |
| ATGCTGTC | 1.1 |
| TCCAGTGCTG | 0.965 |
| AATGGGCACC | 0.978 |
| GGAACGGTCA | 1.04 |
| ACAGACGTGA | 1.24 |
| CCTCTGAATT | 3.15 |
| AAGCTGTCAC | 1.06 |
| AGGGAGAGGG | 1.02 |
| TGAATCTTTT | 0.985 |
| TTTAGATATC | 1.01 |
| GTGCAAAATA | 1.38 |
| CAAGGTGCAT | 1.28 |
| GGAAGTACGG | 1.37 |
| CATTCCGATC | 1.6 |

| Sequence | switch fluorescence ratio |
| --- | --- |
| CGTAATATAG | 1.05 |
| AAGATGAATA | 0.997 |
| TGTTAAGCGG | 0.936 |
| GGTTGCTTCA | 1.03 |
| TTTTGTCCGG | 1.02 |
| TACTAATAA | 1.02 |
| ACGGGTGTGC | 0.997 |
| AAAAAGGGA | 0.972 |
| GTATGGACGC | 1.02 |
| GTGCTGCGGA | 1.03 |
| TTTGCGATTG | 1.02 |
| TTTACAGGCT | 0.96 |
| GGGAAAGCCC | 1.01 |
| GAACGACACG | 1.16 |
| TCGTAAGATG | 1.01 |
| CGGTATTTA | 0.983 |
| CAGTGATGA | 1.04 |
| TCGTTCACAA | 1.14 |
| ATTTTAGACG | 1.11 |
| ATCGTTCTGG | 0.975 |
| TAGTTCCATC | 1.01 |
| GTCCGGAGGG | 0.99 |
| CGGAACTTGA | 1.05 |
| AAAGTAGGAC | 1.11 |
| TTTAGAAAGC | 0.984 |
| TATAAGCTGT | 1.02 |

| Sequence | switch fluorescence ratio |
| --- | --- |
| CACATTTGCA | 1.02 |
| CATTATCGAA | 1.01 |
| GATGGTTGAC | 0.99 |
| GAAAGCTTGT | 1 |
| CGAGGCGCCG | 1.08 |
| TTCAGGAAAG | 0.987 |
| ACGTATAGCA | 1.11 |
| TATGCTTGGA | 0.961 |
| TCTTAAGTG | 0.978 |
| TTTGCTCCTT | 1 |
| AAAGCATATG | 0.985 |
| CCCGTGGTTA | 1.02 |
| CTCAGCTTCC | 1.54 |
| TAGGGCCTGG | 1.02 |
| TGGCCAGTGT | 1.04 |
| TGTGCATAGG | 1.02 |
| GTCCAAGGTA | 1 |
| CGTATTATA | 0.952 |
| ACTCCGATCG | 1.49 |
| TTAGTGAATT | 1.02 |
| ACTTACTATA | 1.14 |
| CCCTGTGCTT | 1.07 |
| CCCATATATT | 1.02 |
| CTTATGGCGA | 0.987 |
| CGGGCGGAGC | 0.962 |
| TAGTTCGC | 0.986 |

| Sequence | switch fluorescence ratio |
| --- | --- |
| ATGCTCGTGC | 0.934 |
| CCTACTAAAG | 1.05 |
| AACGCCTGGA | 0.987 |
| GGGGCCGGTA | 1.04 |
| CGAACGGGCT | 1.1 |
| CAATCTAGCA | 1.02 |
| GACAGCTTGT | 1.01 |
| GCCTGATGTT | 0.942 |
| CAGGTAGTCC | 1.02 |
| GCACCAGGTT | 2.45 |
| GTTGTAAATA | 1.04 |
| AACGCGCCAC | 1.52 |
| GCTAATGCAC | 1.02 |
| CGGTGGCACA | 1.01 |
| TTCGAATTGC | 1.1 |
| GCAAGAAATA | 1.03 |
| GTTTTTACG | 1.03 |
| TGTTTGCG | 1.06 |
| TACCAAGTCA | 1.02 |
